# Results as given in PubChem BioAssay AID2202238 (Ras Initiative Chemistry Research Team, Frederick National …, 2025).
# Some of the results follow. Further columns of the screen follow, without active or inactive calls.
# Molecular target: GTPase KRas (Homo sapiens) (UniProt P01116)
# Assay: Cysteine mutants labelled by reactive fragments (mass read-out) (AID 2202238)
# Design: protein at 5 µM with 500 µM competing thiol for 1.5 h
# Conditions: KRAS G12D cysteine mutants, disulfide tethering, MALDI-TOF labeling, stronger effect = higher value, fragment at 500 µM
# [1] = measured here: G60C mutant labeling
# [2] = measured here: G75C mutant labeling
# [3] = measured here: H94C mutant labeling
# [4] = measured here: I36C mutant labeling
# [5] = measured here: L120C mutant labeling
# [6] = measured here: M67C mutant labeling
# [7] = measured here: M72C mutant labeling
# [8] = measured here: N26C mutant labeling
# [9] = measured here: N86C mutant labeling
# [10] = measured here: P121C mutant labeling
# [11] = measured here: S122C mutant labeling
# [12] = measured here: S136C mutant labeling
# UniProt P01116, sequence (P01116 whole entry, looked up, the tested form may be a part): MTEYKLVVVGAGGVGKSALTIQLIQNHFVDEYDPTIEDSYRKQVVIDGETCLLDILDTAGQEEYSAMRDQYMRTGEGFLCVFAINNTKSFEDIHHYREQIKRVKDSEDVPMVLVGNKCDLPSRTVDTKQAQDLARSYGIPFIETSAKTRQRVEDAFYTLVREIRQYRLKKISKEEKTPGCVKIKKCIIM
SMILES,percent labeling [1],percent labeling [2],percent labeling [3],percent labeling [4],percent labeling [5],percent labeling [6],percent labeling [7],percent labeling [8],percent labeling [9],percent labeling [10],percent labeling [11],percent labeling [12]
CC(=O)NC(Cc1c[nH]c2cc(F)ccc12)C(=O)NCCS (stereo not given),49.3%,20%,36.5%,32.7%,32.4%,64.9%,58%,45%,31.8%,31%,27%,36.3%
Cn1cc(-c2ncccc2C(=O)NCCS)cn1,22.3%,8.5%,29.7%,21.7%,24.5%,30.5%,9.9%,32.6%,20.3%,30.5%,25.4%,36.9%
Cc1c(CC(=O)NCCS)nnn1-c1ccccc1,40.7%,16.9%,34.8%,29.1%,51.1%,42.9%,42.8%,40.1%,26.6%,35.4%,37.5%,47.7%
O=C(NCCS)c1cn(-c2ccc(Br)cc2)cn1,9.6%,6.4%,9.4%,7.6%,8.9%,7.5%,58.6%,22.7%,6.5%,6.8%,5.1%,9.9%
O=C(CCS)Nc1ccc(N2CCOCC2)cc1Cl,–,9.9%,33.1%,39.2%,24.9%,32.3%,35.8%,–,17.3%,25.4%,23.2%,44.6%
Cc1cc(C)c(C(=O)NCCS)c(C)c1Br,51.3%,15.8%,20.3%,15.4%,17.6%,15.6%,28.4%,34.9%,7.6%,26.1%,11.9%,22%
CC(C)N(C)c1ccc(C(=O)NCCS)cc1,26.5%,20.5%,14.4%,13.5%,14.8%,14.9%,68.2%,40.7%,24%,17.9%,11%,25.8%
Cn1cc(C(=O)NCCS)c(-c2cccnc2)n1,17.7%,9.2%,28.6%,27.5%,20.1%,28.3%,16.6%,32.1%,16.9%,23%,19.5%,43.9%
Cc1nc(CCC(=O)NCCS)oc1-c1ccccc1,36.2%,18%,35.5%,20.6%,27.1%,34%,35.2%,34.4%,18.3%,21.7%,19.1%,31.6%
O=C(NCCS)C1CCN(C(=O)c2ccc3ccccc3c2)CC1,41.9%,9.1%,19.8%,20%,10.7%,52.3%,12.8%,23.4%,13.2%,12.3%,3.5%,16%
O=C(NCCS)c1cc(-n2ccnn2)ccc1F,38.1%,23.2%,37%,29.8%,42%,36%,41.8%,46.3%,30.3%,34.3%,31.9%,55%
O=C(CCS)NC1CC2(CCC2)C12CCC2 (stereo not given),–,22.5%,33.8%,29.9%,15.1%,23.1%,47.7%,–,25.4%,28%,22.3%,40.1%
O=C(NC1CCN(C(=O)CCS)CC1)C1CC1,–,10.2%,24.4%,28.6%,26.7%,27.9%,13.4%,–,21.2%,31.3%,38.8%,50.1%
Cc1cc(C)c(N2CC(C(=O)NCCS)CC2=O)c(C)c1 (stereo not given),43.4%,24.3%,43.3%,30.3%,22.7%,50.5%,35.5%,53.4%,26.1%,40%,33.5%,54.6%
O=C(CCS)NCC1=CS(=O)(=O)c2ccccc21,–,9%,22.1%,24.4%,18.1%,18.4%,39.4%,–,9%,20.4%,18%,29.8%
O=C(CCS)NC1CCN(CCc2ccccc2)CC1,–,14.6%,41.3%,58.7%,35.3%,55.3%,32.5%,–,32.1%,39.5%,37.5%,62.7%
O=C(CCc1cccc(Br)c1F)NCCS,47.9%,19.9%,29.7%,25.9%,28.7%,31.5%,50.6%,34.6%,17.2%,27.6%,20.7%,37.5%
O=C(NCCS)C1(c2cccc(Cl)c2)CCCC1,42.7%,17.6%,16.8%,13.3%,25.2%,16.5%,33.7%,26.3%,14.9%,16%,14.3%,22.1%
CC(C)(C(=O)NCCS)c1csc(-c2c(F)cccc2F)n1,34%,14.5%,24.3%,11.2%,21%,18.9%,23.9%,30.5%,11%,15.3%,12.5%,25.6%
CN(CCCC(=O)NCCS)C(=O)c1ccncc1,24.8%,9.1%,31%,23.7%,32.7%,32.2%,10.2%,34.9%,24.5%,32.8%,27.5%,38.1%
O=C(NCCS)C1CCc2nc(C(F)(F)F)cn2C1 (stereo not given),34.5%,12.4%,36%,35%,33.8%,35.1%,14.3%,40.6%,27.1%,33.4%,28.8%,40.6%
Cc1nc(-c2cccs2)sc1C(=O)NCCS,23%,16.1%,16%,11.7%,18.6%,15.2%,51.4%,31.8%,15%,20.9%,14.3%,17.9%
O=C(CCS)NC1(c2nccs2)CCCC1,–,11.6%,40.3%,37.4%,35.9%,31.4%,23.8%,–,27%,36.1%,37.6%,54.4%
O=C(CCS)Nc1cc(-c2ccccc2)nn1Cc1ccccc1,–,11.8%,11.6%,11.5%,10.8%,9.6%,39%,–,15.8%,11.5%,6.2%,13.3%
O=C(Cn1c(-c2ccccc2)cc2ccccc21)NCCS,37.4%,19.1%,18.7%,12.9%,26.4%,12.2%,18.7%,18.8%,8.1%,16.1%,7.4%,12.7%
Cc1nc2c(C(N)=O)ncn2c(C)c1CCC(=O)NCCS,33.4%,11%,26.8%,24.2%,23%,26.5%,10.7%,33.3%,14.7%,24.4%,15.9%,34.9%
O=C(NCCS)c1cnc2ccccc2n1,–,24.4%,24.7%,17.7%,15.6%,19.5%,48.7%,–,15.7%,23.9%,22%,40%
O=C(Cn1c(-c2cccc(Cl)c2Cl)nc2ccccc21)NCCS,47.1%,39.8%,13.2%,14.8%,25.8%,27.9%,41.9%,23%,10%,14.5%,5.8%,39.8%
Cc1cc(NC(=O)CCS)cnc1NC(=O)c1cccc(O)c1,–,16.4%,23.4%,33.9%,19.6%,28.5%,32.2%,–,19%,21.6%,23.1%,43.8%
